Source: the supplement of paper PMC7826260
Some of the results follow. The data describe in vitro nicking of single-stranded DNA by Rep domains for 1 h at 37 °C with 3 µM enzyme; only the middle of the 90-letter strands is printed. A value is the log2 ratio of uncut reads to the pool without enzyme; strong cutting gives strongly negative numbers. There is no active / inactive call. Counts are relative to all reads; uncut strands gain when others are lost, and binding without cutting may add a little.

Experiments:
Test in all cases: uncleaved DNA left, log2 of reads against the no-enzyme library (log2 ratio); higher = less cleavage (more negative = more Rep cleavage of the k-mer); sequences stand for … in CTCGTCCG…ACCGGAGA
[1] = system: T1, Rep nickase domain of Muscovy duck circovirus
T1 sequence (residues 1-111 of Rep, tag left off): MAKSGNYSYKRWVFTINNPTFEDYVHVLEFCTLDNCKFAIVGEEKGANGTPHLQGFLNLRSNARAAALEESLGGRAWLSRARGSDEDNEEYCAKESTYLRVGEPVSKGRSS
Description: (§1)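 A pool of 90-nt single-stranded DNAs with seven random bases just before the constant AC of the nick site (name = the seven bases) was cut by 3 µM recombinant His6-SUMO-tagged Rep nickase domain (300 nM DNA, 50 mM HEPES pH 8.0, 50 mM NaCl, 1 mM MnCl2, 1 h, 37 °C, three replicates). Uncut DNA was amplified and sequenced.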

[2] = system: T2, Rep nickase domain of banana bunchy top virus
T2 sequence (residues 1-94 of Rep, tag left off): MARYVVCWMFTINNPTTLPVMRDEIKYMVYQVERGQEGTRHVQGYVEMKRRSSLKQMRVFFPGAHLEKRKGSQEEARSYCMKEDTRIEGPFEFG
Description: as §1

[3] = system: T3, Rep nickase domain of cabbage leaf curl virus
T3 sequence (residues 1-116 of Rep, tag left off): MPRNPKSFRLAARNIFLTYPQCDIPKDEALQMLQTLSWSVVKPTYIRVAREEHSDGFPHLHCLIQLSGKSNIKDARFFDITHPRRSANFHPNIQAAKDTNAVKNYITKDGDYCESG
Description: as §1

[4] = system: T4, Rep nickase domain of chickpea chlorotic dwarf virus
T4 sequence (residues 1-124 of Rep, tag left off): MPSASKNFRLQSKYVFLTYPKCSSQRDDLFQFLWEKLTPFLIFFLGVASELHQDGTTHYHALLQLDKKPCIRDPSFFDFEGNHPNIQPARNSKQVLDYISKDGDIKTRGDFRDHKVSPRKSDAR
Description: as §1

[5] = system: T5, Rep nickase domain of faba bean necrotic yellows virus
T5 sequence (residues 1-98 of Rep, tag left off): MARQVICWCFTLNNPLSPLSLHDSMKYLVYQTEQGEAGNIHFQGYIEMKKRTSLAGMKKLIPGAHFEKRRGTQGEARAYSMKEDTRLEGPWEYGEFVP
Description: as §1

[6] = system: T6, Rep nickase domain of maize striate mosaic virus
T6 sequence (residues 1-117 of Rep, tag left off): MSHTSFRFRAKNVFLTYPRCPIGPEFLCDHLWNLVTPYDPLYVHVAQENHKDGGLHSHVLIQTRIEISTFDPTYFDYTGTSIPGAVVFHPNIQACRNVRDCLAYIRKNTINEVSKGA
Description: as §1

[7] = system: T7, Rep nickase domain of porcine circovirus 2
T7 sequence (residues 2-116 of Rep, tag left off): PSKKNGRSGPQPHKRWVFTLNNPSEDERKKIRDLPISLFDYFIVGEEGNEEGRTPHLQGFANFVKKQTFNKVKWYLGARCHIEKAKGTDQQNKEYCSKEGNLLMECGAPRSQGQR
Description: as §1

[8] = system: T8, Rep nickase domain of tomato golden mosaic virus
T8 sequence (residues 1-124 of Rep, tag left off): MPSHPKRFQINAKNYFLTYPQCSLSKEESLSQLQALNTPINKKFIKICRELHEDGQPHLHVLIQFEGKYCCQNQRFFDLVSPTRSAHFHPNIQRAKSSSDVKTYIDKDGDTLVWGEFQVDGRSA
Description: as §1

[9] = system: T9, Rep nickase domain of tomato yellow leaf curl virus
T9 sequence (residues 1-136 of Rep, tag left off): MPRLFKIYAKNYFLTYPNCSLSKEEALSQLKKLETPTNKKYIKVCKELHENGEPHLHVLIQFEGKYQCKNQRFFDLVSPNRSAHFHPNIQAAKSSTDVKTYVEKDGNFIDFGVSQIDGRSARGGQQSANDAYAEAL
Description: as §1

[10] = system: T10, Rep nickase domain of wheat dwarf virus
T10 sequence (residues 1-137 of Rep, tag left off): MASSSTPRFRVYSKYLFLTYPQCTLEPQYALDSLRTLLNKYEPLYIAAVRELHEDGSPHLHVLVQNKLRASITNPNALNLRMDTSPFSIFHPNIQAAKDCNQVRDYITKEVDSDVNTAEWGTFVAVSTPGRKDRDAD
Description: as §1

Row | Sequence | uncleaved DNA left (log2) [1] | uncleaved DNA left (log2) [2] | uncleaved DNA left (log2) [3] | uncleaved DNA left (log2) [4] | uncleaved DNA left (log2) [5] | uncleaved DNA left (log2) [6] | uncleaved DNA left (log2) [7] | uncleaved DNA left (log2) [8] | uncleaved DNA left (log2) [9] | uncleaved DNA left (log2) [10]
1 | TGCGGGC | -0.0107 | 0.0591 | -0.14 | -0.243 | 0.135 | -0.277 | 0.0176 | -0.00233 | 0.0888 | -0.00857
2 | TCGTCAC | 0.208 | 0.0811 | 0.238 | 0.0387 | 0.0601 | -0.33 | -0.102 | -0.00748 | 0.09 | -0.00882
3 | AGAACTG | 0.0262 | 0.0322 | -0.00617 | 0.675 | 0.0223 | 1.7 | 0.0541 | 0.198 | -0.0165 | 0.0725
4 | GCCCTGA | -0.0956 | -0.0641 | 0.0217 | 0.377 | -0.0313 | 0.404 | -0.0579 | -0.0463 | -0.144 | -0.0455
5 | TGTTCAT | 0.00385 | 0.0496 | 0.302 | 0.438 | -0.0171 | 0.991 | -0.0991 | -0.0873 | 0.18 | 0.156
6 | GAACTCG | -0.0814 | 0.0266 | -0.796 | -0.965 | -0.0696 | -0.805 | -0.0303 | -0.0289 | -0.121 | -0.152
7 | CCAACTT | -0.135 | -0.178 | -0.31 | -2.42 | -0.084 | -0.333 | -0.452 | -0.171 | -0.0801 | -0.111
8 | CCTCCGT | 0.133 | 0.0409 | -0.0553 | -0.614 | -0.0022 | -0.657 | -0.0257 | -0.129 | -0.161 | -0.0317
9 | CCGGAGG | -0.134 | -0.211 | 0.47 | 0.734 | -0.294 | 0.931 | 0.0514 | -0.0298 | -0.19 | -0.13
10 | TACGGTG | 0.133 | -0.0275 | -0.481 | -0.687 | -0.0575 | -0.897 | 0.0843 | 0.0689 | 0.0602 | 0.0252
11 | AACTCGT | -0.158 | -0.229 | -0.408 | -1.64 | -0.0471 | -1.01 | -3.27 | 0.0165 | 0.0478 | -0.0723
12 | GCTTCAA | 0.131 | 0.0745 | 0.183 | 0.54 | 0.092 | 0.452 | 0.097 | 0.057 | 0.059 | 0.109
13 | GTATATG | 0.054 | -0.0659 | -0.0523 | 0.323 | 0.127 | -0.241 | 0.129 | 0.114 | 0.0493 | 0.0902
14 | TCGCACC | -0.0374 | -0.127 | 0.0184 | -0.327 | -0.114 | -0.553 | -0.272 | -0.0707 | -0.0967 | -0.0909
15 | ACTGCGA | 0.0223 | 0.0304 | -0.485 | 0.303 | -0.0758 | -0.386 | 0.068 | 0.0294 | -0.0331 | -0.19
16 | TTATGAT | -1.37 | 0.00811 | -2.62 | -2.62 | 0.0657 | 0.564 | -1.92 | -0.426 | 0.0181 | -0.295
17 | TTGACCG | -0.0335 | -0.0219 | -0.178 | -0.198 | -0.0379 | -0.627 | 0.0308 | -0.0795 | -0.0315 | -0.046
18 | GAGTGTG | 0.0506 | -0.0274 | -0.507 | -0.474 | 0.0634 | -0.777 | -0.0784 | -0.041 | 0.00336 | -0.0662
19 | TGCCCCG | -0.0379 | -0.0902 | -0.834 | -0.29 | 0.0123 | -0.88 | -0.0633 | -0.156 | -0.00209 | -0.229
20 | CCCGCGA | -0.0634 | -0.222 | -0.855 | -0.4 | -0.00513 | -0.76 | -0.0755 | -0.215 | -0.157 | -0.419
21 | GTCGATC | -0.114 | -0.128 | 0.221 | 0.759 | -0.0838 | 1.36 | -0.113 | -0.127 | 0.0184 | 0.0233
22 | CGACCTG | 0.00515 | 0.0285 | 0.0631 | 0.671 | 0.0877 | 1.72 | 0.0112 | 0.0189 | -0.00459 | 0.0665
23 | GAAACCC | -0.0807 | 0.0573 | 0.179 | 0.0638 | -0.0251 | 0.6 | -0.447 | -0.0361 | -0.00742 | 0.167
24 | GTAGATT | 0.0565 | -0.0396 | 0.309 | 0.622 | -0.011 | 1.71 | -0.0558 | 0.163 | -0.0252 | 0.0588
25 | AAGAATG | 0.0596 | -0.0379 | 0.0825 | 0.608 | 0.0631 | 1.24 | 0.06 | 0.0207 | -0.09 | 0.000385
26 | TCGTGAT | 0.0766 | 0.0866 | 0.0992 | 0.716 | -0.0557 | 1.56 | -2.94 | 0.0745 | 0.0389 | -0.0273
27 | CTGTCAC | 0.00601 | 0.0198 | -0.0431 | -0.17 | -0.0306 | -0.645 | -0.0474 | -0.191 | 0.0424 | 0.0252
28 | CGCTAAA | -0.0391 | -0.0964 | -0.107 | -0.262 | -0.0498 | -0.561 | -0.129 | -0.107 | -0.0407 | -0.0291
29 | TCTGTAT | -0.0211 | -0.0264 | 0.172 | -0.354 | 0.000965 | 0.0688 | -0.0117 | 0.00575 | -0.0103 | -0.139
30 | AAGTGTT | -1.42 | -2.63 | -0.295 | -0.235 | -2.46 | 1.55 | -3.78 | -0.063 | -0.216 | -0.173
